Reference: the supplement of paper PMC4466236
In all, about 33,000 sequences were measured (“E-score (dimensionless, -0.5 to 0.5)”: median about -0.058, highest 2% from about 0.35 on). This is one part of the list.

system: MvaT; experiment: PBM 8-mer E-score (mean of HK and ME arrays) (E-score (dimensionless, -0.5 to 0.5)); higher = stronger relative binding preference; most listed sequences are background and not binding sites
How it was run: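 Full-length P. aeruginosa MvaT carrying an N-terminal glutathione S-transferase tag was tested by protein binding microarray following a previously described protocol. Two universal double-stranded 60-mer arrays, ME and HK, were used, each with a constant 25-mer primer region and a variable 35-mer region covering all 8-mers. The rank-based E-score is the mean of the two arrays, parsed with a custom script. Its range runs from -0.5 to 0.5 for each 8-mer.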

| Sequence | PBM 8-mer E-score |
| --- | --- |
| CGGTGGAA | -0.141 |
| GACCGATA | -0.00788 |
| ATGGAGTC | -0.00425 |
| GAACTGCC | -0.0924 |
| CCCGATCG | -0.198 |
| ATCTGCGA | -0.127 |
| ATGACAGC | -0.0847 |
| GAGGAAGC | -0.266 |
| GATGGAGA | -0.142 |
| CCTCCCTA | -0.302 |
| CTCAGCTC | -0.259 |
| CGACCAAC | -0.0331 |
| AATACTAG | 0.278 |
| AAGATCTC | -0.101 |
| GGGAACAC | -0.198 |
| CTCTACCC | -0.0844 |
| ACGGGGCC | -0.145 |
| CTTTAAGC | 0.0372 |
| CTCGATCC | -0.131 |
| ACCCATGC | -0.165 |
| TCATCAGA | -0.0405 |
| AGACACCG | -0.0315 |
| TATTTCGA | 0.241 |
| AACCAACG | -0.019 |
| GGTGGTAC | -0.153 |

| Sequence | PBM 8-mer E-score |
| --- | --- |
| GGCTGCCA | -0.173 |
| CCCCGTAC | -0.216 |
| AACGGAGC | -0.164 |
| CACACGTC | -0.15 |
| AAGTCACT | -0.024 |
| ACTCCCGG | -0.0571 |
| CAGATGTC | -0.245 |
| ATTCTGAG | -0.0321 |
| TATTGTCA | 0.266 |
| ATTTCACA | 0.296 |
| ACATGCCT | 0.058 |
| CATCTTCG | -0.126 |
| GTCACTGA | 0.00615 |
| CTTACAAA | 0.146 |
| ACCGCCGA | -0.14 |
| ACACGAAA | 0.155 |
| GTCAATTA | 0.164 |
| ACGGTGCG | -0.242 |
| TAGTTATA | 0.402 |
| GACAATGC | -0.0838 |
| GAGATCCA | -0.143 |
| CGCGATCC | -0.146 |
| AATTCCGA | 0.0741 |
| AGATCTGG | -0.154 |
| GGCAACAA | 0.129 |

| Sequence | PBM 8-mer E-score |
| --- | --- |
| AGAGATTC | -0.114 |
| AGCAGCGC | -0.29 |
| GGTGAGTA | 0.00574 |
| CGCGCCAC | -0.224 |
| AGACCCAA | -0.125 |
| CCAGCGTC | -0.0519 |
| CACTCATC | 0.00466 |
| AGTAGCAA | 0.111 |
| CAAAACCC | -0.218 |
| AGACCACG | -0.145 |
| GTGGAAAA | -0.0942 |
| GTGCGAAA | 0.00852 |
| AGGACTTC | -0.00568 |
| AAACAAGA | 0.166 |
| ACTGACGG | -0.126 |
| ACTCCCTC | -0.122 |
| ACCATTGG | -0.248 |
| GACGCATA | 0.132 |
| CATGAATA | 0.235 |
| AACGCCTA | -0.157 |
| ACACACTC | 0.0301 |
| AGTCCTCG | -0.249 |
| AGGCCTGC | -0.212 |
| GGAGCGGA | -0.192 |
| CGGGAACG | -0.269 |

| Sequence | PBM 8-mer E-score |
| --- | --- |
| ACCCCGAG | -0.293 |
| ATCACACA | 0.187 |
| CATCGACA | -0.0893 |
| AAGTGTGG | 0.136 |
| AAGTCGCC | -0.179 |
| GTGGGCAA | -0.0048 |
| GCGCTAAC | -0.049 |
| CCTGGACC | -0.233 |
| ACCCCACG | -0.199 |
| ATCGGAAC | -0.116 |
| CAGGCAAA | -0.0182 |
| AAATCCCC | -0.192 |
| ACGTCTAC | -0.155 |
| CCAGAGCG | -0.269 |
| AACTTGGC | 0.112 |
| CTAACTAA | 0.286 |
| AGCCTGAA | -0.273 |
| ATGCTCGC | -0.134 |
| CATCGAGA | -0.0116 |
| CAATGGTG | -0.0529 |
| ATGGTTCC | -0.0171 |
| GTGGGAGA | -0.256 |
| CGACCGAG | -0.383 |
| CAACTTGC | 0.151 |
| AAAATTGC | 0.171 |

| Sequence | PBM 8-mer E-score |
| --- | --- |
| AGCTCTGG | -0.183 |
| CGCGCACA | 0.0234 |
| AAAATGTC | 0.0242 |
| ATGCTAAC | 0.0574 |
| ACTCCGAC | -0.0954 |
| CTCAGAAG | -0.0743 |
| ACGGGTGG | -0.0208 |
| CATAACAA | 0.0795 |
| CCACCTAA | -0.0154 |
| AGACCGCT | -0.141 |
| GAAATAGC | 0.151 |
| CAACCCGG | -0.226 |
| TGATCAAA | 0.117 |
| ATAGTAAA | 0.327 |
| AACCGCCA | -0.0966 |
| CCAGTCAC | -0.158 |
| CTGCGGCA | -0.209 |
| CGTTACCC | -0.0868 |
| ACCCAAGA | -0.0615 |
| AGCGAGCC | -0.235 |
| AGAGAGTC | -0.186 |
| GACGTACA | 0.034 |
| GTTTCAGA | 0.0751 |
| CCGTCGGC | -0.287 |
| GGAAGATA | 0.0618 |

| Sequence | PBM 8-mer E-score |
| --- | --- |
| CGCACCTC | -0.233 |
| AAGCTAGA | 0.058 |
| ATAGCTGA | 0.0649 |
| GATTTCCA | -0.0348 |
| AAACCAGG | -0.173 |
| ACCCTCAC | -0.199 |
| CATGTTAC | 0.198 |
| GTAGCAAA | 0.116 |
| CAGTTGCA | -0.00346 |
| CACTCTTC | -0.164 |
| ATCGGCAT | -0.0898 |
| TAGCGTCA | -0.121 |
| CCATAGCC | -0.234 |
| CAGCCCCG | -0.27 |
| CCGGCCGA | -0.0662 |
| CGACAGCC | -0.107 |
| AAGACATC | -0.0219 |
| CACGCAGG | -0.323 |
| GTTAATGA | 0.264 |
| ATATAGAT | 0.35 |
| AACCCACG | -0.111 |
| GTCGTGTA | -0.19 |
| TCACCCCA | -0.117 |
| AATATCCA | 0.198 |
| AGTATGAC | 0.145 |

| Sequence | PBM 8-mer E-score |
| --- | --- |
| AATCCACA | 0.139 |
| CCGTCAAC | -0.129 |
| AGGTTGGG | -0.167 |
| CACCCCAG | -0.333 |
| AAAATGTG | 0.0752 |
| CCGTGATA | 0.0119 |
| GAGTGGAC | -0.101 |
| GCGATGAC | -0.136 |
| CGTGTCCC | -0.138 |
| GGCCAGGA | -0.183 |
| ACTCATCG | -0.021 |
| GACAGGAC | -0.173 |
| CATCTTTC | -0.00603 |
| ACACCCAT | 0.08 |
| GCTAACGA | -0.0928 |
| AACTTACA | 0.33 |
| CATAAATG | 0.112 |
| GGGGGATA | -0.0492 |
| AAATGTCC | 0.0297 |
| AATGGCGT | 0.00855 |
| AAATTCCC | 0.0738 |
| GCGCTACA | -0.0341 |
